Measurements as given in publication PMC4336329 (PLoS ONE, 2015).
Among all 310,000 compounds or so, about 14,000 (4.5%) showed an effect of 50% or more. Effects have a minus sign here. Some of the results follow.

biological target: human ether-à-go-go-related gene (hERG) potassium channel (human, UniProt Q12809); experiment: primary screen, population patch clamp on CHO cells stably expressing hERG
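Also: peak tail current of the secondary pulse compared with the same well before compound.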

Sequence of human ether-à-go-go-related gene (hERG) potassium channel (Q12809 whole entry, looked up): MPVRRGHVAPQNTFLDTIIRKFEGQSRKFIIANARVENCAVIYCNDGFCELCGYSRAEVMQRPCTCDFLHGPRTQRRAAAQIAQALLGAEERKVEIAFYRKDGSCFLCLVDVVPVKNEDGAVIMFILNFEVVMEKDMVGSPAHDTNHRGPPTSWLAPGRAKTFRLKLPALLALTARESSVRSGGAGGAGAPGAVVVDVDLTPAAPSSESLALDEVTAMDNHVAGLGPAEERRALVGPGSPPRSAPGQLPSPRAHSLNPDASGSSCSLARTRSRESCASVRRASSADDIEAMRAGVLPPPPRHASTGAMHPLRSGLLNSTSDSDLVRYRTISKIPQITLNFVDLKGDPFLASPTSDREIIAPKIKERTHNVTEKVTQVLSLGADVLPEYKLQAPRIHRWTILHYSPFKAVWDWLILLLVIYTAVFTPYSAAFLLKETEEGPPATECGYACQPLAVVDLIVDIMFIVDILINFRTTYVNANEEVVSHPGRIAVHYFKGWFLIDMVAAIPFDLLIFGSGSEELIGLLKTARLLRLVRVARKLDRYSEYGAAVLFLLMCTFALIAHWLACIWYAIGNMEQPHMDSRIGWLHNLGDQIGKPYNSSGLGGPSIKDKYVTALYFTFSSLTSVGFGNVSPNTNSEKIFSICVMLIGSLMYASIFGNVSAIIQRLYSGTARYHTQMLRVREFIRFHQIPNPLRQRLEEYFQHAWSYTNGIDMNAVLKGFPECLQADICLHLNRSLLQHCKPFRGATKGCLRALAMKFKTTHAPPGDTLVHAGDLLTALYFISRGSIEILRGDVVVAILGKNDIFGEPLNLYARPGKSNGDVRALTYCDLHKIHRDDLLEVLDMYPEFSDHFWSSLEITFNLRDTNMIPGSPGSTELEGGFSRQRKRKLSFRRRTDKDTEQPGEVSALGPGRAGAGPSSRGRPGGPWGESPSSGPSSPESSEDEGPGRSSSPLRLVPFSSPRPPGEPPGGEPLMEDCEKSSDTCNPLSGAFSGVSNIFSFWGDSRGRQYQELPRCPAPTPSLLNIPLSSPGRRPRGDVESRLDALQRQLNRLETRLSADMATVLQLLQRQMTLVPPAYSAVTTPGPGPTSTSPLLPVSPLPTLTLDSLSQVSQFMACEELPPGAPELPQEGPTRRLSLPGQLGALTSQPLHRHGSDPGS

SMILES | hERG current change (%, negative = inhibition) at 10uM [%]
Cc1cc(NC(=O)Cc2cccs2)no1 | 12.3
CC(=O)c1cccc(OCC(=O)Nc2cc(S(=O)(=O)N3CCOCC3)ccc2N2CCCC2)c1 | -15.4
CCc1ccccc1N1C[C@@]23C=C[C@@H](O2)C(C(=O)OCC(C)C)[C@H]3C1=O (stereo partly shown) | -7.71
COCCN(C(=O)CSc1cc(C)c2ccccc2n1)c1c(N)n(CC(C)C)c(=O)[nH]c1=O | 0.153
CCSc1ccccc1C(=O)N1CCN(c2ccccc2F)CC1 | 17.6
CCCCOC(=O)Nc1ccc(C(C)C)cc1 | 5.49
COC(=O)c1c(NC(=O)C2CC(=O)NN2Cc2ccccc2)sc(C)c1C (stereo not shown) | 6.43
O=C(COc1ccccc1Cl)NCc1nc(-c2ccccc2)no1 | -0.239
CCCN(C1CCS(=O)(=O)C1)S(=O)(=O)c1ccc(F)cc1 (stereo not shown) | -3.44
CSc1nsc(NC(=O)Cc2ccccc2)n1 | -8.68
O=C(CN1CCN(S(=O)(=O)c2cccs2)CC1)NCC1CCCCC1 | -29.8
COc1ccc(/C=N/N2C(=O)CSC2=S)cc1 | 14.4
COC(=O)CNC(c1ccccc1Cl)c1cc(Br)ccc1NC(=O)CCN1CCOCC1 (stereo not shown) | -32.5
Cc1cc(C)n(-c2ccc(C(C)C)cc2)c(=O)c1C#N | -25
O=C(Nc1nc2ccc(F)cc2s1)C1CCCO1 (stereo not shown) | -7.17
CCOc1ccc2nc(/N=C/c3c(C)[nH]n(-c4ccc(C)cc4)c3=O)sc2c1 | -1.61
CCCCn1c(NCCN(C)C)nc2c1c(=O)[nH]c(=O)n2C | -10.7
Brc1ccc(OCc2cn3ccccc3n2)cc1 | -7.75
CC1CCN(C(=O)CN(Cc2ccc(Cl)cc2)S(C)(=O)=O)CC1 | 3.1
CC(C)CCn1c(Br)nc2c1c(=O)n(CC(N)=O)c(=O)n2C | 9.25
CC(=O)N/C(=N/c1nc(C)cc(C)n1)Nc1cc(C)cc(C)c1 | -14.7
CC(C)OC(=O)CSc1nc(Cc2cccs2)nc2ccccc12 | -34.5
Cc1nn(CC(=O)OC(C)C(=O)Nc2ccccc2[N+](=O)[O-])c(C)c1[N+](=O)[O-] (stereo not shown) | -27.6

SMILES | hERG current change (%, negative = inhibition) at 10uM [%]
Cc1cccc(NC(=S)N2CCC(c3nc4ccccc4s3)CC2)c1 | 3.18
Cn1nnc2ccccc2c1=O | 12.5
Cc1cc(C)nc(SCc2ccc(C(=O)N/N=C3\CCCC(=O)C3)cc2)n1 | 41.3
COC(=O)c1ccccc1CCC(C)=O | 10
Cc1sc2ncnc(SCC(=O)NC(C)C(C)C)c2c1C (stereo not shown) | 26.2
O=C(COC(=O)CCOc1ccccc1)Nc1cc(S(=O)(=O)N2CCCCC2)ccc1Cl | -14.7
O=C1C(=O)N(CC(=O)N2CCCC2)c2ccccc21 | 4.92
Cc1cccc2c(SCC(N)=O)nc(-c3ccccc3)nc12 | 5.97
Cc1ccc(S(=O)(=O)NCCC(=O)OCC(=O)Nc2ccccc2Cl)cc1 | -10.5
COc1ccc(-c2c(-c3ccccc3OC)oc3ccccc23)cc1F | 9.84
CCOC(=O)c1[nH]c(C)c(C(=O)NCCCOC(C)C)c1C | 8.4
CCc1ccc(-c2cc(C(F)(F)F)n3nc(C(=O)Nc4c(C)nn(Cc5ccccc5C)c4C)cc3n2)s1 | -3.99
O=C(CSc1nnc(C2CC2)n1Cc1ccccc1)Nc1cccnc1Cl | 5.07
CCOc1ccc(CCNC(=O)CCc2nnc3ccc(N4CCCC4)nn23)cc1OCC | -2.76
O=C(NCC1CCCO1)c1cc2cc(Cl)ccc2[nH]1 (stereo not shown) | 8.96
CSc1ccc(CN(C)C(=O)C(c2ccccc2)c2ccccc2)cc1 | 3.09
CCN(CCn1cccn1)C(=O)c1cc(COc2ccccc2SC)on1 | -16
Cc1oc(-c2ccccc2F)nc1CS(=O)(=O)CC(=O)NCCCN(C)C1CCCCC1 | -6.81
O=C(CN1CCCCCC1)NCC1CCCO1.O=C(O)C(=O)O (stereo not shown) | 15.9
Cc1nc(C)c(-c2csc(NCCc3ccccc3)n2)s1.O=C(O)C(=O)O | 1.88
COc1ccc(OC)c(C(C)NC(=O)C(C)Cc2ccccc2)c1 (stereo not shown) | 15.3
Cc1ccccc1NC(=O)C(=O)NCC1CCCN1S(=O)(=O)c1cccs1 (stereo not shown) | -10.7
CCN(CC)C(=O)CSc1nnc(-c2ccc(O)cc2)n1CC1CCCO1 (stereo not shown) | 17.1

SMILES | hERG current change (%, negative = inhibition) at 10uM [%]
O=C(CSc1nc2cccnc2n1Cc1ccccc1)NC1CCCCC1 | -43
Cc1cc(C)cc(S(=O)(=O)c2cnc3ccccc3n2)c1 | 15.1
Brc1ccc2[nH]c3nc(SCCN4CCOCC4)nnc3c2c1 | 14.1
CCC(=O)Nc1ccc2nc3c(=O)[nH]c(=S)[nH]c3nc2c1 | 39.3
C=CCn1c(SCC(=O)NC2CCCCC2)nc2ccccc2c1=O | 19
CCOc1cc2c(cc1OCC)-n1cccc1C(c1cccc(OCC)c1O)NC2.Cl (stereo not shown) | -48.1
CN(c1ccccc1)S(=O)(=O)c1ccc(C(=O)Nc2nnc(C3CC3)o2)cc1 | -3.8
Cc1cccc(NC(=O)CSc2nc(=O)n(CCN3CCOCC3)c3c2CCCC3)c1C | -23.6
COc1ccccc1N1CCN(C(=O)CSc2nnc3c4ccccc4n(CC(=O)O)c3n2)CC1 | 9.75
Cc1ccc(C(=O)N2c3ccc(F)cc3CCC2C)o1 (stereo not shown) | 0.746
COC(=O)c1cc(NC(=O)CCc2c(C)nc3ncnn3c2C)cc(C(=O)OC)c1 | -36.1
CCN(CC(=O)Nc1c(F)cccc1F)C(=O)c1cc2c(cc1Cl)N1CCCCCC1=NS2(=O)=O | 14.5
O=c1c2ccccc2nc2n1CC/C2=C\N1CCN(c2ccc([N+](=O)[O-])cc2)CC1 | -78.1
CC(C)CN(CC(C)C)C(=O)CS(=O)(=O)Cc1ccccc1 | 3.13
COc1ccc(Cl)cc1-c1nc(SCC(=O)N(C)CCC#N)n[nH]1 | 11.9
O=C(CSc1nc(-c2ccccc2)cc(=O)[nH]1)Nc1ccc(F)c(F)c1 | 26.5
Cc1cc(-c2ccc(Br)cc2)n[nH]1 | -1.57
CC(C)Cn1cnc2c1c(=O)[nH]c(=O)n2Cc1ccccc1 | 3.15
COc1ccc(NC(=S)Nn2cnnc2)c(OC)c1 | 12.9
COCCn1c(C)cc(/C=C2/NC(=O)N(Cc3ccc(C)cc3)C2=O)c1C | 12.3
CC(=O)c1c(C)[nH]c(C(=O)C(C)Sc2nnc(NC3CC3)s2)c1C (stereo not shown) | -22.9
O=C1OC(N2CCN(C(=O)c3ccco3)CC2)c2ccccc21 (stereo not shown) | 5.84
CCCSc1nc(C)cc(C)c1S(C)(=O)=O | 8.96

SMILES | hERG current change (%, negative = inhibition) at 10uM [%]
COC(=O)C1=C(C)NC(C)=C(C(=O)OC)C1c1ccc(-c2cccc([N+](=O)[O-])c2)o1 | -0.354
CCn1c(CCc2ccccc2)nnc1SCC(N)=O | 15.7
O=C(CCc1nnc(Cc2ccc3c(c2)OCO3)o1)N(CC1CCC1)CC1CCCO1 (stereo not shown) | 6.04
CC(=O)c1cccc(NC(=O)CN2C(=O)COc3ccc(S(=O)(=O)N4CCOCC4)cc32)c1 | 15.6
CCC(CC)NC(=O)c1ccc(Cl)cc1 | 23.2
O=C(O/N=C1\CCCc2ccccc21)C1CC1 | 14.4
Cc1onc(-c2c(Cl)cccc2Cl)c1C(=O)c1c[nH]c(C(=O)NCC2CCCO2)c1 (stereo not shown) | 22.9
CCOc1ccc(N=Cc2c(C)[nH]n(-c3nc4ccccc4[nH]3)c2=O)cc1 | -7.07
C=CC(C)(C)c1[nH]cnc1/C=C1\NC(=O)C(C(C)C)NC1=O (stereo not shown) | 3.54
COc1ccc(NC(=O)C2C(c3ccccc3)C2(Cl)Cl)c(OC)c1 (stereo not shown) | 10.3
COc1ccc(OC)c(NC(=O)C2CC(C)=C(C)CC2C(=O)O)c1 (stereo not shown) | -2.07
O=C(CCC1CCCN(Cc2ccc3c(c2)OCCO3)C1)NCc1ccccc1F (stereo not shown) | -24.2
COc1ccc(OCCC(=O)NC2CCCCC2)cc1 | 35
Cc1cc(NC(=O)CSc2nc3sc(C)c(C)c3c(=O)n2C2CCCC2)no1 | 12.4
CC(=O)c1c(N)nc2n(c1=O)CCCCC2 | 12.8
C=CCNc1nc(N2CCCC2)nc2ccccc12 | -78.3
O=C(O)c1ccccc1Sc1ncnc2sc3c(c12)CCC3 | 9.12
CN(CC(=O)Nc1ccccc1Br)C(=O)CNC(=O)c1ccc(Oc2ccccc2)cc1 | -17.8
COc1ccccc1/C=C/C=N/NC(=O)CN1CCN(S(=O)(=O)c2ccc(C)cc2)CC1 | -50.2
O=S1(=O)CC/C(=N\Nc2ccccc2)c2ccsc21 | 23.2
COC(=O)C(CC(C)C)NC(=O)c1ccc([N+](=O)[O-])c(C)c1 (stereo not shown) | 4.36
CCCNC(=O)C(Cc1cccc(OC)c1)NC(=O)c1ccc(C#N)cc1 (stereo not shown) | -7.8
